Measured values from PubChem BioAssay AID1347165 (National Center for Advancing Translational Sciences (NCATS), 2019).
About 5,700 (2.6%) of roughly 220,000 compounds were called active. The inconclusive results got no clear call from the source; some entries with a clear call stand among them for comparison. Calls follow the shape of the dose curve; as a rule, active = well fitted inhibition curve with a large enough effect; inconclusive = small, poorly fitted or top-dose-only effect; inactive = no such curve, though single readings can be large or run the other way. Where the call is inconclusive, the potency comes from a doubtful curve fit.

Molecular target: Lysine-specific demethylase 5B (Homo sapiens) (UniProt Q9UGL1)
Experiment: Primary screen for KDM5B Histone Demethylases FDH-coupled qHTS; also: nearly all actives have a fitted effect of over 70% in size; as to activity change, negative = inhibition: 0% is about no effect
Details: FDH-coupled NADH fluorescence (FDH is formaldehyde dehydrogenase); activity change, negative = inhibition: at 57.7 µM (top of the series) unless noted
How it was run: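 Coupled FDH/NAD⁺ fluorescence readout. KDM5BΔAP 200 nM final; compound titration, 10 min RT preincubation; substrate mix 12.5 µM H3K4me3, 25 µM 2-OG, 50 µM Fe(II), 100 µM ascorbate, 0.25 mM NAD⁺, 0.25 U/mL FDH; ΔRFU over 30 min.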
Potency is read from the fitted curve at half-maximal effect; tags tell the direction and shape of the fitted curve.

Chain of UniProt Q9UGL1 (Q9UGL1 whole entry, looked up): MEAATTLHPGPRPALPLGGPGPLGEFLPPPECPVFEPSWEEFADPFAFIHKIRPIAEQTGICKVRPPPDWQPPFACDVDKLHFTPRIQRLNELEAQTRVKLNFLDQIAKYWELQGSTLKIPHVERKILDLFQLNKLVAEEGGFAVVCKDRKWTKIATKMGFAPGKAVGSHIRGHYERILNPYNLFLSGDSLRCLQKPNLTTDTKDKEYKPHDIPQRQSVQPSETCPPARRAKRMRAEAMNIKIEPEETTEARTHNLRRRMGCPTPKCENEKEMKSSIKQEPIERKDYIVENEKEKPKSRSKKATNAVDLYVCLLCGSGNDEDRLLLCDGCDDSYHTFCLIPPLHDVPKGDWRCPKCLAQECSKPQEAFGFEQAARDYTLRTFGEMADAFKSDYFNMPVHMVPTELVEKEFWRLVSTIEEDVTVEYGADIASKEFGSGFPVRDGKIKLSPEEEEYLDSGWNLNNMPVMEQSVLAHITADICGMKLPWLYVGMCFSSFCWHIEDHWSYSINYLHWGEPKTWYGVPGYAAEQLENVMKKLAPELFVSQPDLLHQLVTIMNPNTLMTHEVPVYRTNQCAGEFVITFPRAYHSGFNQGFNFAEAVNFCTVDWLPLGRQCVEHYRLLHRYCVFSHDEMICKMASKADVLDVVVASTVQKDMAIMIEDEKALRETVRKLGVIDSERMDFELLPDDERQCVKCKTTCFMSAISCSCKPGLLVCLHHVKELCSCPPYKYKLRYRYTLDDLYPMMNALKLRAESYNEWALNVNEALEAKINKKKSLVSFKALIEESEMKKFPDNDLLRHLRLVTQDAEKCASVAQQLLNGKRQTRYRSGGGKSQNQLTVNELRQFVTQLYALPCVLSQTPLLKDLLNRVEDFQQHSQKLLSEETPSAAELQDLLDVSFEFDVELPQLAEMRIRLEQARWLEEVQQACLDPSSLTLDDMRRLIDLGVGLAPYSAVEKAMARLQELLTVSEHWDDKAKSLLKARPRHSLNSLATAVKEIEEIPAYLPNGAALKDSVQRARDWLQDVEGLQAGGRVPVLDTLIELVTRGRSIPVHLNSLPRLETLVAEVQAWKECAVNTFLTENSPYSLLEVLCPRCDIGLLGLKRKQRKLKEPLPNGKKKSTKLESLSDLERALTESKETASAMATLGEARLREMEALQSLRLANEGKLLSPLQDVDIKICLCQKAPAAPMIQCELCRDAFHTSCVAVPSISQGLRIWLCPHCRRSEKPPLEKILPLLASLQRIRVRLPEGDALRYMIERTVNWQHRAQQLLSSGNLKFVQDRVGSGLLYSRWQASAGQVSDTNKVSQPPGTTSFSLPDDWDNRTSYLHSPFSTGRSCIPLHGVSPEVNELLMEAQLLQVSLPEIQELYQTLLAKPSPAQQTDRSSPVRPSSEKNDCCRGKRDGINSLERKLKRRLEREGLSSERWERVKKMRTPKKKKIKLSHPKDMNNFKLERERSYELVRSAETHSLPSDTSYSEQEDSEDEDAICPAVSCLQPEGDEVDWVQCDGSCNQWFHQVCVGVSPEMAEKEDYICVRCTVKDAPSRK

Row | Structure (SMILES) | Potency | activity change, negative = inhibition
1 | O=C(N[C@H]1CCN2C(=O)c3ccccc3NC(=O)[C@@H]2C1)c1ccccc1 | inconclusive: 28.2 µM [inhibitor, single point] | 
2 | CCSc1ncc(Cl)c(C(=O)Nc2ccc(S(=O)(=O)N3CCCCC3CC)cc2)n1 (stereo not drawn) | inconclusive: 35.5 µM [inhibitor, partial curve, poor fit] | 
3 | COc1ccc(C(=O)N2CCCN(c3cc(-c4ccccc4)[nH]n3)CC2)c(OC)c1 | inconclusive: 25.1 µM [inhibitor, partial curve, poor fit] | 
4 | Cc1ccc(CN(C(=O)COc2cccc(Cl)c2)c2ccccn2)o1 | inconclusive: 4.47 µM [inhibitor, partial curve, poor fit] | 
5 | Cc1ccc(-n2nc3n(c2=O)CCN(C(=O)c2ccc(F)cc2)C3)cc1 | inconclusive: 39.8 µM [inhibitor, single point] | 
6 | CC1=C(C(=O)OC(C)C)C(c2ccc(O)cc2)C2=C(CCCC2=O)N1 (stereo not drawn) | inconclusive: 25.1 µM [inhibitor, single point] | 
7 | COc1cc(O)ccc1-c1nc2ccc(Br)cn2c1Nc1ccccc1C | inconclusive: 25.1 µM [inhibitor, single point] | 
8 | COc1ccc(-c2c(C)c3ccc(O)c(CN4CCCCC4C)c3oc2=O)cc1OC (stereo not drawn) | inconclusive: 31.6 µM [inhibitor, partial curve, poor fit] | 
9 | O=C(NCc1ccncc1)C1CCN(C(=O)N2CC3CC(C2)[C@H]2CCCC(=O)N2C3)CC1 (stereo partly drawn) | inconclusive: 31.6 µM [inhibitor, partial curve, poor fit] | 
10 | COc1ccccc1C(=O)OC(c1ccc(NC(=O)c2ccc(OC(F)F)cc2)cc1)(C(F)(F)F)C(F)(F)F | inconclusive: 15.8 µM [inhibitor, partial curve, poor fit] | 
11 | CN(C)C[C@@H]1CN(c2ncccn2)C[C@H]1NC(=O)c1cccc(C#N)c1 | inconclusive: 31.6 µM [inhibitor, single point] | 
12 | CC1(C)Cc2c(C#N)c(Nc3ccccc3)n3c(SCC(=O)N4CCCCC4)nnc3c2CO1 |  | inactive: 4.25%
13 | COc1ccc(NC(=O)C2(S(=O)(=O)c3ccc(C)cc3)CC2)c(OC)c1 | inconclusive: 25.1 µM [inhibitor, single point] | 
14 | O=C(/C=C/c1ccc2c(c1)OCO2)NCc1ccncc1 | inconclusive: 35.5 µM [inhibitor, partial curve, poor fit] | 
15 | COc1cccc(CC(=O)N2CCCn3nc(C)c(-c4ccccc4-c4ccccc4)c32)c1 |  | inactive: -14.8% [at 86.2 µM]
16 | CCc1ccc(NCc2cc3ccc(OC)cc3n(CC(=O)Nc3ccccc3OC)c2=O)cc1 | inconclusive: 7.08 µM [inhibitor, partial curve, poor fit] | 
17 | Cc1ccc(C)c(NC(=O)c2ccc3c(c2)NC(=O)C2CCCN32)c1 (stereo not drawn) | inconclusive: 22.4 µM [inhibitor, partial curve, poor fit] | 
18 | O=C(c1cc2occc2n1Cc1ccccc1F)N1CCSCC1 |  | inactive: -16.8%
19 | Cc1ccc(C(=O)NCCSc2c[nH]c3ccccc23)cc1C | inconclusive: 31.6 µM [inhibitor, single point] | 
20 | Cc1ccn2c(Nc3ccc4c(c3)OCO4)c(-c3ccc(C)o3)nc2c1 | inconclusive: 31.6 µM [inhibitor, partial curve, poor fit] | 
21 | Cc1cccc(-c2ccc3c(c2)C(=O)N2CC[C@H](NC(=O)COCC(=O)O)[C@H]2C(=O)N3)c1C | inconclusive: 44.7 µM [inhibitor, partial curve, poor fit] | 

Row | Structure (SMILES) | Potency | activity change, negative = inhibition
22 | Cc1ccc(-c2cc(C(=O)O)c3cc(Br)ccc3n2)o1 | inconclusive: 20 µM [inhibitor, partial curve, poor fit] | 
23 | O=C(Cc1ccccc1)N1CCC(Cc2nc(-c3ccccc3)n[nH]2)CC1 |  | inactive: -1.81%
24 | Cc1cccn2c(=O)c3cc(C(=O)NC(C)(C)C)n(C)c3nc12 | inconclusive: 3.16 µM [inhibitor, partial curve, poor fit] | 
25 | CCOC(=O)C1CCN(c2nc3c(S(=O)(=O)c4ccc(CC)cc4)nnn3c3ccc(Cl)cc23)CC1 | inconclusive: 15.8 µM [inhibitor, partial curve, poor fit] | 
26 | O=C(CN1CCCC1)N[C@H]1CC[C@H](Nc2nccc(-c3cccnc3)n2)C1 | inconclusive: 31.6 µM [inhibitor, partial curve, poor fit] | 
27 | CC(=O)c1ccc(NC(=O)C2CCCN(S(=O)(=O)c3ccc(Br)s3)C2)cc1 (stereo not drawn) | inconclusive: 15.8 µM [inhibitor, partial curve, poor fit] | 
28 | COCCn1cnc2c1c(=O)n(Cc1ccc(C(=O)OC)cc1)c(=O)n2Cc1ccccc1 |  | inactive: 6.96%
29 | Cc1cc(=O)oc2cc(OCC(=O)N(c3ccccc3)C(C)C)ccc12 | inconclusive: 39.8 µM [inhibitor, single point] | 
30 | COc1ccccc1NS(=O)(=O)c1cc(NC(=O)C2CCC2)ccc1N1CCCCC1 | inconclusive: 11.2 µM [inhibitor, partial curve, poor fit] | 
31 | COc1ccc(Cl)cc1-c1ccc2c(c1)C(=O)N1CCN(C(=O)CO)C[C@@H]1C(=O)N2 | active: 35.5 µM | 
32 | NNC(=O)Cn1c(-c2ccccn2)nc2ccccc21 | inconclusive: 22.4 µM [inhibitor, partial curve, poor fit] | 
33 | COc1ccc2oc(=O)c(C(=O)N3CCN(c4cc(Cl)ccc4Cl)CC3)cc2c1 | inconclusive: 28.2 µM [inhibitor, partial curve, poor fit] | 
34 | COc1ccc(CN2CCn3c(nn(-c4cccc(Cl)c4)c3=O)C2)cc1 | inconclusive: 56.2 µM [inhibitor, partial curve, poor fit] | 
35 | CCCOC(=O)c1c(NC(=O)c2cc3nc(-c4ccc(OC)cc4)cc(C(F)(F)F)n3n2)sc2c1CCCC2 | inconclusive: 2 µM [inhibitor, partial curve, poor fit] | 
36 | COc1cccc(CC(=O)Nc2ccc3c(c2)CN(Cc2ccccc2)C(=O)C(C)O3)c1 (stereo not drawn) | inconclusive: 35.5 µM [inhibitor, single point] | 
37 | CC(C)N1C(=O)C2(CCCCC2)C1C(=O)NCCN1CCCC1 (stereo not drawn) | inconclusive: 39.8 µM [inhibitor, single point] | 
38 | COCCn1c(=O)c2c(n1Cc1ccccc1)CN(Cc1ccc(C(C)C)cc1)CC2 | inconclusive: 39.8 µM [inhibitor, partial curve, poor fit] | 
39 | CCc1ccc(-c2cc(C(F)F)n3nc(C)c(Br)c3n2)cc1 |  | inactive: -1.15%
40 | CC(NC(=O)c1ccc(Br)o1)C12CC3CC(CC(C3)C1)C2 (stereo not drawn) | inconclusive: 39.8 µM [inhibitor, single point] | 
41 | CC(C)C(=O)Nc1c(C(=O)N2CCN(c3ccccc3F)CC2)oc2ccccc12 |  | inactive: -22.5%
42 | O=Cc1ccc(-c2cccc(Cl)c2)cc1 | active: 31.6 µM | 

Row | Structure (SMILES) | Potency | activity change, negative = inhibition
43 | CC(C(=O)N1CCCCCC1)N1CCC(c2nc3ccccc3o2)CC1 (stereo not drawn) |  | inactive: 0.258%
44 | COc1cccc(C(=O)N2CCC3(CC2)CCN(Cc2cccs2)c2ccccc2O3)c1 | inconclusive: 7.94 µM [inhibitor, partial curve] | 
45 | CC1(C(=O)NCCc2ccccc2)CCCCC(=O)N1 (stereo not drawn) |  | inactive: 4.91%
46 | CC(C)(C)C(=O)COC(=O)c1ccccc1Cl |  | inactive: 25%
47 | Cc1ccc(-c2nc3sc(CCNC(=O)c4ccco4)c(C)n3n2)cc1 | inconclusive: 0.794 µM [inhibitor, full curve, poor fit] | 
48 | NC(=NCc1ccccc1)NCc1ccc(F)cc1 |  | inactive: 28.1%
49 | CCN1c2cc(C(=O)NCc3ccc(Br)cc3)ccc2C(=O)N2CCCCC21 (stereo not drawn) | inconclusive: 22.4 µM [inhibitor, partial curve, poor fit] | 
50 | C=CCN(CC=C)C(=O)/C=C/c1csc(C)n1 |  | inactive: 9.7%
51 | N#Cc1ccccc1CN1CCCCCCNC(=O)[C@@H]2C[C@@H](C(=O)N3CCc4ccccc4C3)C[C@@H]21 | active: 20 µM | 
52 | Cc1ccc(-c2nc(CCNC(=O)C(=O)Nc3ccc(F)cc3F)cs2)cc1 | inconclusive: 25.1 µM [inhibitor, single point] | 
53 | Cc1ccc(C(=O)N2[C@@H]3CC[C@H]2CC(NC(=O)c2ccncc2)C3)cc1F (stereo partly drawn) |  | inactive: 2.51%
54 | Cc1ccc(C(=O)Nc2cc3cc(Cl)ccc3oc2=O)cc1 | inconclusive: 2.24 µM [inhibitor, full curve, poor fit] | 
55 | CN1CCN(c2nc(-c3ccc(Cl)cc3)nc3ccccc23)CC1 | inconclusive: 39.8 µM [inhibitor, single point] | 
56 | O=C(CSc1nnc2ccc(-c3ccc(Br)cc3)nn12)NCc1ccc2c(c1)OCO2 |  | inactive: -17.2%
57 | C=CCNc1nc(C(=O)OC(C)C(=O)Nc2ccc(F)cc2Cl)cs1 (stereo not drawn) |  | inactive: -14.8%
58 | COc1cccc(-n2c(=O)c3sccc3n(Cc3cc(=O)n4cc(Cl)ccc4n3)c2=O)c1 | inconclusive: 25.1 µM [inhibitor, partial curve, poor fit] | 
59 | C=CCNC(=O)[C@@H]1Cc2cn(CC3CC3)c3cccc(c23)[C@H](CC(C)C)N1 | inconclusive: 35.5 µM [inhibitor, partial curve, poor fit] | 
60 | Cc1ccc(NCC(=O)Nc2cc(Cl)ccc2-n2cncn2)cc1F |  | inactive: 3.46%
61 | O=C(OCc1ccccc1)N1CCC2(CC1)C(=NC1CCCCC1)NC(=O)N2c1cccnc1 | active: 28.2 µM | 
62 | Cc1noc(C)c1CC(=O)NCC1CCN(c2cc(-c3ccccc3)[nH]n2)CC1 | inconclusive: 22.4 µM [inhibitor, single point] | 
63 | O=C1c2c(nc(CNCc3cccc(F)c3)n2Cc2ccccc2)NCCN1Cc1cccc(Cl)c1 | inconclusive: 25.1 µM [inhibitor, single point] | 
